B1: LINE1-mini (parent)
chain: GGCAGAGCUCAACACAGCGUGGCAAAGUGGCUGUGGCUAGACUGCC

The source gives no read counts; variants with many changes may rest on few reads.

The variants in this data set derive from B1. The data set is described as follows: self-cleavage, relative activity (ratio to wild type); higher = more cleavage; in vitro, sequencing; the parent is a self-cleaving ribozyme.
Turning to C8G G27A C31U U32G G33U, the self-cleavage was found to be 0.01.
In the case of C3A A16G C18A G36A G40A, the self-cleavage is 0.45.
The result for G5U C10U G22U G35A reads 0.03; that for C10A A16G G33A G40C, 0; that for G1U C8U C10U A26G A39G, 0.02.
Regarding G2U U20A G27A, the self-cleavage amounted to 0.06.
The same measure for A6C U9C C37U A41C: 0.03; for A6G A16G G40C C45U: 0.01.
The result for G19U A26G U34C C45A reads 0.04; that for C13U C23U G27U C42G, 0.03; that for G22A G27C U38G C45G, 0.01.
The same measure for G5C A11U G29A G40U U43A: 0.02; for A4C C10A A26C G27U G30U C31A: 0.25; for C3A A4C C31U: 0.02.
G2U A11C C13G U32C: the self-cleavage is 0.01.
In the case of G5U A12C C13A G21C, the self-cleavage was 0.03.
In the case of A4C G7A U9A C18U U38A, the self-cleavage came out at 0.11.
For the variant A4G A25G C31A G36A G44U, the self-cleavage was 0.1.
The same measure for A12G C31U G40U: 0.03; for C3A A6U U28G G29C G36A A39U: 0.02; for U28G G36C A39C G40U C45U: 0.02.
The same measure for G7A G21C U28C G30C: 0.04; for G19C U20A A26G: 0.2; for G1C C23U C42A: 0.04.
The same measure for C3A G7A A11C C18U C31U C37U C42G G44A: 0; for C3A G5A A6U A12G G29U G30U U34G C42G C45U: 0.26.
In the case of U28A G30C G40A, the self-cleavage is 0.02.
For A26C U34A C46G, the self-cleavage came out at 0.18.
The same measure for C3G C23G G27A G33C: 0.04; for G7U C8U G36C: 0.42.
The result for C3U G19C C31G G36U C46A reads 0.04; that for C37U U43A G44A, 0.04; that for G17C G21C U28C, 0.2.
The result for U9C C15G A16U U20G U43G reads 0.02; that for G5A C8A A12C C15A C23A G36A G40U, 0.04.
As to G27C G36U C42G U43G, the self-cleavage was 0.02.
With G19A G35A A39U, the self-cleavage was 0.18.
The same measure for G2U C3A G22C G27U: 0.73; for A4U A12C A16U G40U A41G G44C: 0.01; for G5U G19A A41G C45A: 0.29.
The result for C15A A16C G40C reads 0.1; that for C18U G19U A39C, 0.23; that for C13A U20G C37G, 0.01.
The same measure for A4U G5A A6G U20A: 0.01; for G2A U28A G40U: 0.05.
For the variant C23A A25U G30U G33A G44U, the self-cleavage is 0.05.
Regarding A4U C8A C13U C45G C46U, the self-cleavage turned out to be 0.18.
With U20A C31A U32C U38C, the self-cleavage was 0.03.
In the case of C10A A12G A26G C37A, the self-cleavage was determined as 0.02.
The result for C18U G29U C31G reads 0.06; that for A4G A6C G21U A39G, 0.77.
The result for A6U C8U U28A A39U U43A reads 0.11.
Regarding C3G U9G C31G G33U C37U, the self-cleavage worked out at 0.11.
The result for U9G A26U U28G G29C reads 0.01.
C3G A11U U38C: the self-cleavage was 0.04.
The result for G7A G21A A24U reads 0.09; that for G2U C10U A12U C18U A25C A26G G30U C46A, 0.01.
With C3U A16C G17C G19U C37U C42U, the self-cleavage amounted to 0.06.
The result for A4G U9G C10A A16U G17A G35C G36A reads 0.03.
Consider A16U G22A U32C G44A, for which the self-cleavage is 0.04.
Take C10G G21U C23G: the self-cleavage stood at 0.13.
The same measure for A4G G5A A6C U9C G19U C31G: 0.01; for A25U G33A U43A: 0.13; for A14G A16U U28A A39G: 0.01.
The same measure for C8U G30A A39G: 0.08; for G1C C8A G17C A25G U28G C42U C46U: 0.01; for C8U U9C A16G G44C: 0.03.
The same measure for G5U C8G A11G G27A C31A: 0.02; for C13U A41U C46A: 0.
Take A25G G35C C45U: the self-cleavage was determined as 0.06.
With C3U G7U C18A U28G, the self-cleavage worked out at 0.77.
The same measure for G1C A6U U34G: 0.02; for G19A G21U C31A U34G: 0.02; for A4U A6C G36C C45A: 0.04.
For the variant G2U U28G C42U, the self-cleavage turned out to be 0.01.
The same measure for G2U A6U C10A: 0.09; for C8A A11G G19A G30U C45G: 0.03; for G19C C31U G35U C37U: 0.02.
As to G7C A11U G22U C23A G30A, the self-cleavage was found to be 0.01.
Regarding G17U G21A G36U C37A, the self-cleavage came to 0.06.
The same measure for C8U G22U G40C C45A: 1.4; for G21C C23U G27C G33C: 0.15; for G21C A24G G36U C37U: 0.02.
The result for C13U A16U G36A reads 0.17; that for G2C G17C U34G, 0.05; that for G7U C18U G19A U20C G27U G44A, 0.07.
The result for A25C U43C C45G reads 0.06.
With G19C G21U G30C C31G, the self-cleavage was found to be 0.08.
Take G5U G7C G29U: the self-cleavage turned out to be 0.28.
The same measure for G5C A6G G35U A39C A41G: 0.01.
A6C G17U G19U A26G U32C G35A: the self-cleavage came out at 0.
With G1A G7C C13G C37G, the self-cleavage came out at 0.69.
The result for A4C G7C A14U A24G C37A reads 0.31.
The result for G1A A14U G30C reads 0.06.
The same measure for A12C A16G C37U: 0.02; for U9C G21A U34A G36C: 0.12; for G1A C18A G35C A41C G44A: 0.01.
As to G21A C23G G44U, the self-cleavage was determined as 0.13.
With A14C A24G U38G, the self-cleavage was determined as 0.01.
Turning to A12U G17U G19A G36A U43A, the self-cleavage came to 0.01.
The result for C23G A26U G35U reads 0.23; that for C8U G27C U28C C31G C37U, 0.18; that for U20G A41U C45A, 0.33.
On to C15U C42U C45A, for which the self-cleavage turned out to be 0.02.
Consider G5C A12U C18U G27U G33A, for which the self-cleavage amounted to 0.13.
For G5A U9A C10A A14U G17A G30U, the self-cleavage was determined as 0.04.
As for A6C C13G C46G, the self-cleavage was found to be 0.08.
As to A4G A6G A11U C37G G44U, the self-cleavage was determined as 0.02.
In the case of A14U G21A G30A G40C U43G, the self-cleavage came to 0.01.
A16C U34A G36C: the self-cleavage stood at 0.04.
The same measure for U9C A12U C13U A16U: 0.04.
For the variant C8U A16U G33U, the self-cleavage is 0.12.
On to A4U G29U U32A G33U, for which the self-cleavage was found to be 0.03.
For U9C C15A G29U C45A, the self-cleavage was determined as 0.01.
The same measure for G7C A16C G29U: 0.04; for G7A U9G A12U: 0.29; for A14C G17U G22C: 0.04.
The result for U9C C18A G27C reads 0.03; that for G5U A14G G21A, 0.14.
On to G2C U9G U43A, for which the self-cleavage was 0.04.
For C3G G21U U38A A39G, the self-cleavage worked out at 0.72.
The same measure for G5C C15U C18U G29U: 0.04; for G17U C31G C42A: 0.08.
The result for A14C C31U G33C reads 0.03.
The same measure for A11C G30A G40U C46G: 0.01; for G1U U43C G44U: 0.04.
Turning to C15U G17A C23G A24U G30U A41G, the self-cleavage was 0.04.
C23G A24U C31U: the self-cleavage was 0.15.
The result for G17C G19U G30U reads 0.12; that for A16U G17C C18U C46G, 0.03.
The result for A24G C31G G36U U38C C45U reads 0.02; that for G2C C31A A41G, 0.04.
The result for G1A C8G G21U A41C C45A reads 0.21; that for A4U A6U G29U U32A C42A, 0.14; that for A12U U20A G22U, 0.8.
For the variant G5A C18A G40C, the self-cleavage was 0.1.
The result for A12C A16G U20G G21U U28G reads 0.01; that for G1U C8U C18U, 0.07; that for A26G U34C C37U, 0.06.
For the variant U9A A14C C23A G36A A39U A41C, the self-cleavage amounted to 0.01.
The same measure for C15A G19A A24U G29U G35C U43G: 0.02; for A14U G33C U38C: 0.
With G17A G19C G33A, the self-cleavage was found to be 0.06.
The result for G2C A24C A26C U38A C45U reads 0.02.
Take C15U G33U G36C U43A: the self-cleavage is 0.01.
On to A14C A16U C42U C46U, for which the self-cleavage was found to be 0.1.
In the case of C15A G30C U32C G33A C37A, the self-cleavage worked out at 0.01.
For the variant C10U A12C A14G G36U, the self-cleavage was found to be 0.03.
The result for G2C G5U U9A G33C reads 0.03.
Take U20G U32C G36A C42U C46A: the self-cleavage came to 0.02.
The result for A6G C8A C10A A16U C45A reads 0.01; that for A12G C13G G21U C23U A26C U43G, 0.03; that for G2A C3A C8A U9G U20C G36C, 1.58.
The same measure for A4U C13A A16U G21U A24U G29A U32G G35U: 0.15.
The same measure for G2A U9C A11C C13A A14U A26G C37G: 0.03; for C10A A12U A24C C46A: 0.
Turning to C10U C23U G36C G44C, the self-cleavage is 0.04.
The result for A14G G22U C37U G44U reads 0.04; that for G17U A39C G40A C42G, 0.22.
Take G21A A26U G33U: the self-cleavage was determined as 0.13.
On to C3G A12G U20C G29C G30A, for which the self-cleavage was 0.08.
The result for G2C G5A G19U U38C reads 0.01.
On to C23G A24G C31U, for which the self-cleavage stood at 0.03.
The result for C18G G21U U28C U38G A39C reads 0.01; that for A11U C13G A25U A26C C42U, 0.03; that for C18G A25G G27A G30A G36C, 0.04.
For the variant G17U U38C C45A, the self-cleavage is 0.01.
